Among all 360,000 compounds or so, about 17,000 (4.7%) were called active. The inconclusive results got no clear call from the source; some entries with a clear call stand among them for comparison. Rule as the data show it: active = activity change below about -50%; inconclusive = mostly about -30% to -49%; inactive = weaker than that.
Assay: qHTS for Inhibitors of Inflammasome Signaling: IL-1-beta AlphaLISA Primary Screen
Conditions: THP-1 LPS/ATP IL-1B secretion, 16 h; at 57.5 µM, stronger effect = lower value
Outline: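 THP-1 cells pretreated 1 hr with compounds (up to 57.5 uM final), then stimulated with LPS (250 ng/mL final) plus ATP (1.25 mM final); secreted IL-1B measured by AlphaLISA after 16 hr, decreased signal indicating inhibition.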
In the case of `COc1ccc(C(=O)/C=C2/C(=O)Nc3ccccc32)cc1`, the activity change is reported as inconclusive: -47.8%. In the case of `O=C(N/N=C/c1ccccc1Cl)C1CC1`, the activity change is reported as inconclusive: -33.9%. In the case of `Cc1ccc(OCC(=O)Nc2cc(S(=O)(=O)N3CCCCC3)ccc2N2CCN(C)CC2)c(C)c1`, the activity change is reported as inconclusive: -46%. In the case of `O=C(Nc1c(C(=O)N2CCC(N3CCCCC3)CC2)oc2ccccc12)c1c(F)cccc1F`, the activity change is reported as inconclusive: -32.2%. With `CC(NC(=O)CCc1nnc(-c2ccc(-c3ccccc3)cc2)o1)c1nc2ccccc2[nH]1` (configuration not stated) the activity change was inconclusive: -32.5%. In the case of `O=C(Cn1cnc(S(=O)(=O)N2CCCC2)c1)Nc1ccccc1`, the activity change is reported as inconclusive: -40.1%. With `O=C(CCc1ccccc1)OCCN1CCOCC1` the activity change was inactive: 12.7%. For `COc1cc2c3c(c1OC)C(=O)CC3CCCC2` (configuration not stated), the activity change was inconclusive: -33.2%. In the case of `COc1cc(C2C3C(=O)N(Cc4ccccc4)C(=O)C3ON2c2ccccc2)cc(OC)c1O` (configuration not stated), the activity change is reported as inactive: 11.6%. With `CCOC(=O)c1c(C)oc2c1c(CN1CCN(C(=O)OCC)CC1)c(O)c1ccccc12` the activity change was inconclusive: -37.8%. For `COc1cccc(CC2(CO)CCCN(Cc3cn[nH]c3-c3cc(C)ccc3C)C2)c1` (configuration not stated), the activity change was inconclusive: -32%. With `COCC(C)N1C(=O)Cc2c1nc(N)c1c(N)nc(N3CCN(c4ccccc4F)CC3)c(C#N)c21` (configuration not stated) the activity change was inconclusive: -44.7%. In the case of `CC[C@H](C)[C@H]1CNC(=S)N1CC1CCN(CCC(C)C)CC1`, the activity change is reported as inactive: -3.62%. In the case of `N#C/C(=C\c1ccc(Sc2nc3ccccc3[nH]2)o1)c1ccccc1`, the activity change is reported as active: -72.9%. For `Cc1ccc(C)c(N(CC(=O)NC2CCCC2)S(=O)(=O)c2ccccc2)c1`, the activity change was inconclusive: -37.5%. With `CCCCn1nnnc1SCC(=O)Nc1ccc2c(c1)OCO2` the activity change was inconclusive: -40.2%. In the case of `O=C1CN2C(=Nc3ccc(Cl)cc3C2c2ccccc2)CN1` (configuration not stated), the activity change is reported as inconclusive: -42.8%. With `C[C@H](CO)N1C[C@H](C)[C@@H](CN(C)C(=O)c2cc(-c3ccccc3)on2)OCc2cn(nn2)CCCC1=O` the activity change was inactive: 5.73%. With `COc1cccc(CN2C(=O)c3ccccc3S2(=O)=O)c1` the activity change was inactive: 21.1%. For `CC(C)(C)c1ccc(C(=O)NCC2CCCN2S(=O)(=O)c2ccccc2)cc1` (configuration not stated), the activity change was active: -56.9%. For `Cc1ccc(-c2nc(C#N)c(NCCCn3ccnc3)o2)cc1`, the activity change was inconclusive: -44.9%. In the case of `CCC1CCc2sc(C(=O)NCC(c3ccc(OC)cc3)N3CCCC3)cc2C1` (configuration not stated), the activity change is reported as inconclusive: -34.9%. For `COC(=O)C[C@@H]1C=C[C@H](NC(=O)Cc2ccccn2)[C@@H](CO)O1`, the activity change was inactive: 26.7%. With `CCOC(=O)[C@]12CCC=C1N(Cc1ccccc1)C(=O)[C@H](CC(=O)NCc1cccc(C(F)(F)F)c1)C2` the activity change was inconclusive: -40.4%. With `CCc1ccc(-c2cc(C)no2)cc1S(=O)(=O)NCc1ccccc1OC` the activity change was inactive: -13.3%. With `CCN(CC(=O)N1CCCC1)S(=O)(=O)c1ccc2ccccc2c1` the activity change was inactive: -14.5%. For `O=[N+]([O-])c1ccc(COc2ccc(-c3[nH]ncc3-c3ccc(Cl)cc3)c(O)c2)cc1`, the activity change was active: -92.1%. In the case of `NS(=O)(=O)c1ccc(NC(=O)c2cc(Cl)sc2Cl)cc1`, the activity change is reported as inconclusive: -32.8%. For `COc1ccc(S(=O)(=O)N(C)C[C@H]2Oc3ccc(NS(=O)(=O)c4cn(C)cn4)cc3C(=O)N([C@H](C)CO)C[C@@H]2C)cc1`, the activity change was inactive: 0.267%. For `O=CNc1cc(-c2ccc(C(=O)NC3CC3)cc2)cn2c(-c3ccccc3)cnc12`, the activity change was inconclusive: -49.4%. For `O=C(Nc1ccc(Br)cc1)c1ccccc1CC[N+](=O)[O-]`, the activity change was inactive: -4.22%. For `O=C1c2ccccc2NC(c2cccc(O)c2)N1Cc1ccco1` (configuration not stated), the activity change was inactive: 26.5%. For `CCN(C(=O)COC(=O)c1cc(-c2cccs2)nc2ccccc12)C1CCS(=O)(=O)C1` (configuration not stated), the activity change was active: -53.6%. In the case of `CNCCCCOc1ccc(C(C)(C)C)cc1Cl`, the activity change is reported as active: -55.4%. For `Cc1nc(C)c(-c2ccc(SCc3ccc([N+](=O)[O-])cc3)nn2)s1`, the activity change was inconclusive: -42.4%. With `Cc1ccc(C)c(NC(=O)C(C)N2C(=O)c3ccccc3C2=O)c1` (configuration not stated) the activity change was inactive: -6.78%. With `COc1ccc(CNc2nc3ccccc3n2CCN2CCCCC2)cc1` the activity change was inconclusive: -44.4%. In the case of `CC(=O)ON=C1C=CC(=C(C#N)c2ccccc2)C=C1`, the activity change is reported as active: -111%. For `O=C(N/N=C/c1c[nH]c2ccc(Br)cc12)c1ccn(Cc2ccc(Cl)cc2Cl)n1`, the activity change was inconclusive: -47.1%. With `C[C@H](NC(=O)c1ccccc1Cl)C(=O)OC(C(=O)Nc1cc(C(F)(F)F)ccc1Cl)c1ccccc1` (some centres not stated) the activity change was inconclusive: -33%. For `CS(=O)(=O)c1ccc(C(=O)OCC(=O)NCc2cccs2)cc1[N+](=O)[O-]`, the activity change was active: -97%. For `CCOc1ccc(C(=O)COC(=O)Cn2[nH]c(=O)c3ccccc3c2=O)cc1`, the activity change was inactive: 8.03%. With `CC1(C)CN(c2ccc(Br)cc2Br)C1=O` the activity change was inactive: 0%. In the case of `O=C(Nc1ccc2oc(-c3ccncc3)nc2c1)c1ccco1`, the activity change is reported as inconclusive: -30.6%. With `CC1CC(C)CN(C(=O)c2ccc3c(c2)N(Cc2ccccc2)CCS3)C1` (configuration not stated) the activity change was inconclusive: -30%. In the case of `Clc1ccc(SCc2cn3ccccc3n2)cc1`, the activity change is reported as inconclusive: -40.8%. For `Cc1cccc(OCC(O)Cn2c(=N)n(CCN3CCCCC3)c3ccccc32)c1` (configuration not stated), the activity change was active: -51%. For `CCc1ccc(-c2cc(C(=O)NCc3ccccn3)c3ccccc3n2)cc1`, the activity change was inconclusive: -37.1%. With `CCOC(=O)C1=C(O)/C(=C\c2ccc(CNC(=O)C(=O)Nc3ccccc3)o2)N=C1C` the activity change was inactive: 13.5%. With `CCN(c1ccccc1)S(=O)(=O)c1ccc(Oc2ccc(-n3ccnc3)cc2)nc1` the activity change was inconclusive: -44.2%. In the case of `CC(=O)c1ccc(OCC(O)CN(C)CCOc2ccc(Br)cc2)cc1` (configuration not stated), the activity change is reported as inconclusive: -45.8%. In the case of `COc1ccc(NC(=S)N2CCNC(=O)C2CC(=O)Nc2cccc(Cl)c2C)cc1` (configuration not stated), the activity change is reported as inconclusive: -36.6%. In the case of `COc1cc([N+](=O)[O-])ccc1NC(=O)C[n+]1ccccc1C`, the activity change is reported as inactive: -8.24%. For `Cc1ccc(Nc2nc(N)nc(CN3CCN(c4ccccc4)CC3)n2)cc1Cl`, the activity change was inconclusive: -31.6%. In the case of `O=C(Nc1ccc(Cl)cc1)C1Cc2c(-c3ccc(Cl)cc3)ccnc2O1` (configuration not stated), the activity change is reported as inactive: -10.7%. In the case of `O=[N+]([O-])c1cccnc1N1CCC(c2cc(-c3cccc(C(F)(F)F)c3)n[nH]2)CC1`, the activity change is reported as inconclusive: -30.7%. With `C=CCNC(=S)Nc1ccc(OC(F)F)c(Cl)c1` the activity change was inconclusive: -35.4%. With `COc1ccc2cc(S(=O)(=O)N3CCCC(C)C3)ccc2c1` (configuration not stated) the activity change was inconclusive: -47.3%. For `O=C(/C=C/c1ccc(F)cc1)NC(=S)Nc1ccccc1O`, the activity change was inconclusive: -33.1%. For `CC(=O)Nc1sc(NC(=O)c2ccccc2)nc1-c1cccs1`, the activity change was inconclusive: -49.1%. With `CC(=O)c1ccc(S(=O)(=O)NC2CC(=O)N(c3ccc(Cl)cc3)C2)cc1` (configuration not stated) the activity change was inactive: 6.84%. In the case of `O=C(CCn1c(=O)sc2ccccc21)Nc1nc2ccccc2s1`, the activity change is reported as inconclusive: -38.7%. In the case of `CC(=O)N1CCc2cc(S(=O)(=O)NCCC(=O)N3CCN(c4ccccn4)CC3)ccc21`, the activity change is reported as inactive: 17.6%. In the case of `CCN1CCN(C(=O)c2ccccc2Nc2ccc(SC(F)F)cc2)CC1`, the activity change is reported as inconclusive: -49.5%. In the case of `O=C(CCn1nnc(-c2cccs2)n1)NC1CCCCC1`, the activity change is reported as inactive: 21.1%. With `Cc1onc(-c2ccccc2)c1C(=O)N(Cc1ccco1)Cc1cccs1` the activity change was inconclusive: -43.6%. In the case of `C=CCOc1ccc(CNc2ccc(NC(=O)CC(C)C)cc2)cc1OC`, the activity change is reported as inactive: -1.83%. With `CNC(=O)c1cccn1-c1ccsc1C(=O)OC` the activity change was inactive: -0.627%. For `O=C(NCc1nnc(SCC(=O)N2CCC(Cc3ccccc3)CC2)o1)c1ccco1`, the activity change was active: -92.1%. For `COc1ccccc1P(=O)(c1ccccc1)c1ccccc1`, the activity change was inactive: 6.83%. With `Nc1ccc2nc(COc3ccccc3)[nH]c2c1` the activity change was inconclusive: -45.3%. For `Cc1ccc(NC(=O)CCNS(=O)(=O)c2cc(Br)cnc2N)cc1Cl`, the activity change was inconclusive: -48%. With `CCN(CC)S(=O)(=O)c1ccc(N2CCc3cc(OC)c(OC)cc3C2)nc1` the activity change was active: -90.8%. For `O=C(Cn1sc2ccccc2c1=O)Nc1ccccc1`, the activity change was active: -104%. With `C=CCn1c2ccccc2c2nnc(SCc3[nH]c(=O)[nH]c3C(=O)CCCCC(=O)OCC)nc21` the activity change was active: -80.5%. In the case of `COc1ccc(C(C(=O)NCC2CCCO2)N(Cc2cccs2)C(=O)c2snc(C(N)=O)c2N)cc1` (configuration not stated), the activity change is reported as inactive: 9.66%. With `COc1cc(OCc2ccccc2)c(C(=O)/C=C/c2ccc3c(c2)OCO3)c(OC)c1OC` the activity change was active: -91.1%. For `CCC(=O)Nc1nc2cc(OC)ccc2s1`, the activity change was inactive: -6.47%. For `CCc1ccc(-c2nc(CS(=O)CC(=O)NCc3ccccc3)c(C)o2)cc1` (configuration not stated), the activity change was inactive: 14.9%. For `COC(=O)CCCC(=O)N1CCCC(CCC(=O)NCc2ccc(F)c(F)c2)C1` (configuration not stated), the activity change was inconclusive: -33.2%. In the case of `Cc1onc(-c2ccccc2)c1C(=O)OCC(=O)Nc1ccc(C#N)cc1`, the activity change is reported as inconclusive: -39.8%. With `Cc1cccc(Nc2nc(-c3ccc(F)cc3)cs2)n1` the activity change was inactive: -21.6%. For `O=C(/C=C/c1ccc([N+](=O)[O-])cc1)Nc1cccc(S(=O)(=O)NC2=NCCCCC2)c1`, the activity change was inconclusive: -47.6%. For `CC(C)CCC(CCNCc1ccccn1)c1ccc2c(c1)OCO2` (configuration not stated), the activity change was inconclusive: -36.5%. In the case of `Cc1ccc(CS(=O)(=O)c2ncc(Cl)c(C(=O)Nc3nnc(C)s3)n2)cc1`, the activity change is reported as active: -57.1%. In the case of `CCCN1Cc2cccc(C(=O)NC(C)c3cccs3)c2C1=O` (configuration not stated), the activity change is reported as inactive: -17.2%. In the case of `O=C(Nc1nccs1)c1ncc(Cl)c(Cl)c1Cl`, the activity change is reported as active: -55.7%.

Source: PubChem BioAssay AID743279 (National Center for Advancing Translational Sciences (NCATS), 2014)
% is scaled to controls: 0 for no effect and ±100 for the full control effect.
